Results on 123 compounds are retold here after article PMC9574860, “Chemical Toolkit for PARK7: Potent, Selective, and High-Throughput” (Journal of Medicinal Chemistry, 2022).

Hit rate of the full screen: of about 7,900 compounds, about 400 (5.1%) showed an effect of 50% or more. Some of the results follow.

Chain of Parkinson's disease protein 7 (PARK7/DJ1) (Q99497 whole entry, looked up, the tested form may be a part): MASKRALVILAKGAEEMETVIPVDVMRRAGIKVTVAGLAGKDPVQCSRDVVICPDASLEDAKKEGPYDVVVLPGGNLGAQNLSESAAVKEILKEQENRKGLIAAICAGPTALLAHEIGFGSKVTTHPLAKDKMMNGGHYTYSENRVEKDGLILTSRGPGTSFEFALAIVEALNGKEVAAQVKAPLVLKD

This assay has as its target Parkinson's disease protein 7 (PARK7/DJ1) (human, UniProt Q99497). Put plainly: primary screen, percent inhibition; read as competition with a fluorescent probe by fluorescence polarization; higher = more effect of the substance. The settings on record: 100 µM. The essentials:
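Covalent fragments at 100 μM final were incubated 2 h with 0.2 μM PARK7, then 20 nM probe JYQ-107 added for a further 2 h. Fluorescence polarization read at 480/520 nm; relative FP loss versus reference controls gave remaining enzyme activity.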
On to `CC1CC1C(=O)N1CC(CS(=O)(=O)F)C1` (stereo not drawn), for which the Inhibition % turned out to be 16.8%.
Take `O=C1OCCC1Sc1nc2ccc(Cl)cc2[nH]1` (stereo not drawn): the Inhibition % turned out to be 7.91%.
As for `CC(N)c1ccc(B2OC(C)(C)C(C)(C)O2)cc1F.Cl` (stereo not drawn), the Inhibition % was 2.11%.
Consider `Cl.O=S(=O)(F)C1CCCNC1` (stereo not drawn), for which the Inhibition % came out at 8.33%.
The value for `Cl.O=C(O)C1CCN(C(=O)C=Cc2ccccc2F)C1` (stereo not drawn) was 3.63%.
Turning to `Cc1noc2ncc(S(=O)(=O)OCC(F)(F)F)cc12`, the Inhibition % was 18.2%.
`O=C1OCCC1N1CCOC(c2nccs2)C1` (stereo not drawn): the Inhibition % amounted to 13.9%.
As to `CC1CCN(C(=O)CCl)C2CCCCC12` (stereo not drawn), the Inhibition % is on record as 18.1%.
On to `C=CC(=O)NC(=O)NC12CC3CC(CC(C3)C1)C2`, for which the Inhibition % is listed as 3.27%.
In the case of `O=C(CCl)N(Cc1ccccc1)c1ccccc1`, the Inhibition % worked out at 10.7%.
For `CCc1cc(S(=O)(=O)n2ccnc2)ccc1OC`, the Inhibition % is recorded as 7.72%.
For `CS(=O)(=O)n1c(=O)oc2ccccc21`, the Inhibition % is reported as 44.3%.
Take `CN(Cc1ccncc1)S(=O)(=O)C=Cc1ccccc1`: the Inhibition % was 11.5%.
Take `N#Cc1nccnc1N1CCC(c2ccsc2)CC1`: the Inhibition % amounted to 7.7%.
The value for `N#Cc1nc(N2CC[C@H](O)C2)ccc1Cl` was 9.73%; that for `N#Cc1ccc(NCCc2cccc(F)c2)cn1` was 1.64%.
Consider `CCN(Cc1ccc2c(c1)OCCO2)C(=O)CCl`, for which the Inhibition % was 17.9%.
Take `C=CC(=O)NCC1CCCCC(F)(F)C1` (stereo not drawn): the Inhibition % worked out at 6.18%.
In the case of `CC(C)NC(=O)C(C#N)=Cc1cccc(Cl)c1`, the Inhibition % is listed as 7.34%.
For the compound `Cn1c(S)nc2sccc2c1=O`, the Inhibition % is 5.34%.
With `N#CC(=Cc1ccc(N2CCOCC2)cc1)C(N)=O`, the Inhibition % was 12.7%.
The value for `CC(C)NC(=O)C(C#N)=Cc1cc(F)ccc1F` was 1.67%; that for `N#Cc1ccc(C(F)(F)F)nc1S` was 14.7%.
With `N#CC1(CCCl)CCCCC1`, the Inhibition % was 3.15%.
To `C=CC(=O)NC(Cn1cncn1)c1ccccc1` (stereo not drawn) belongs 8.82%; to `N#Cc1nc2cc(Cl)ccc2o1`, 5.08%.
Regarding `CCc1nc(CNc2ccc(C#N)nc2)cs1`, the Inhibition % is 4.33%.
For `C=CC(=O)NC1CC2(CCCC2)Oc2ccccc21` (stereo not drawn), the Inhibition % is reported as 1.13%.
As for `COCc1cccc(SC(=O)N(C)C)c1`, the Inhibition % is 29.5%.
As to `N#Cc1cccc(C(=O)O)n1`, the Inhibition % is given as 5.26%.
With `O=c1[nH]c(-c2ccncc2)no1`, the Inhibition % came to 11.2%.
To `CC(NS(=O)(=O)C=Cc1ccccc1)C(=O)O` (stereo not drawn) belongs 8%.
To `CC1(C)OB(c2cc(Cl)ccc2N)OC1(C)C` belongs 13.4%; to `O=C(CCl)Nc1ccc(Br)cc1F`, 71.1%.
To `C=CC(=O)N1CCNC(=O)C1` belongs 11.3%; to `N#Cc1ccc(S(=O)(=O)N2CCC[C@H]3CCCC[C@H]32)cn1`, 7.31%; to `CCC1SC(=C(C#N)C(N)=O)N(c2ccc(F)cc2)C1=O` (stereo not drawn), 5.28%.
For `CC(CNc1nccnc1C#N)Cc1cccs1` (stereo not drawn), the Inhibition % is reported as 2.1%.
As for `CS(=O)(=O)C(C#N)=Cc1cccc(C(F)(F)F)c1`, the Inhibition % came out at 9.43%.
Turning to `C=CC(=O)Nc1cnc2[nH]ccc2c1`, the Inhibition % is 14.2%.
As to `C=CC(=O)NCC1C(C)(C)C1(F)F` (stereo not drawn), the Inhibition % came to 1.36%.
The value for `C=CCN(C(=O)Cn1cnc(C#N)n1)c1ccccc1` was 7.87%; that for `O=C(CCCl)Nc1ccc(F)cc1` was 5.87%; that for `N#Cc1ccc(CN2CCCCC2C2OCCO2)cc1` (stereo not drawn) was 10.8%.
On to `C=CC(=O)NC1CCN(C(C)C)C1=O` (stereo not drawn), for which the Inhibition % is reported as 5.41%.
Turning to `C=CC(=O)N1CCN(Cc2cncs2)CC1`, the Inhibition % came out at 8.7%.
Consider `N#Cc1c(N)nc2n1CCOC2`, for which the Inhibition % is on record as 8.61%.
For `CCSc1cc(CNc2ccc(C#N)nc2)ccn1`, the Inhibition % stood at 6.38%.
For `O=C1NC(c2ccccc2)C12CC=CC2` (stereo not drawn), the Inhibition % came to 6.25%.
As to `Cc1noc(C)c1CC(C)Nc1ccc(S(=O)(=O)F)cn1` (stereo not drawn), the Inhibition % is 6.46%.
`C=CC(=O)NC(c1ccco1)c1ccccc1OC` (stereo not drawn): the Inhibition % is recorded as 3.02%.
The value for `C=CC(=O)NCC1CCC(c2ccccc2)O1` (stereo not drawn) was 10.6%.
To `C=CC(=O)N1CCN(C(C)C)c2ccccc2C1` belongs 5.69%; to `C=CC(=O)N1CCc2c(Cl)cccc21`, 13.7%; to `CC1(C)OB(c2ccc(N)c(F)c2)OC1(C)C`, 1.59%.
The value for `Cc1sc(NC(=O)CCl)c(C)c1C` was 56.3%; that for `C=CC(=O)N1C[C@@H](O)C[C@H]1C(=O)OC(C)(C)C` was 10.9%.
For `CSc1cc(C)c(B2OC(C)(C)C(C)(C)O2)cn1`, the Inhibition % is 5.78%.
For the compound `COc1ncc(S(=O)(=O)F)cn1`, the Inhibition % was found to be 31.2%.
In the case of `Cc1cccc(N2C(=O)CN=C2S)c1`, the Inhibition % turned out to be 2.51%.
With `COc1c(Br)ccc(F)c1B1OC(C)(C)C(C)(C)O1`, the Inhibition % is 9.18%.
Regarding `Cc1ncsc1C=C(C#N)C(=O)NCCc1ccccc1`, the Inhibition % is recorded as 6.72%.
The value for `CSc1ccc(C=C(C#N)C(=O)NC(C)C)cc1` was 7.3%.
On to `O=C(CCl)Nc1ccc2c(c1)OCO2`, for which the Inhibition % is on record as 46.5%.
`C=CC(=O)N1CCN(c2cc(OC)ccn2)CC1`: the Inhibition % amounted to 9.1%.
The value for `CCOc1cccc(CN2C(=O)CCC2=O)n1` was 2.95%; that for `CC1(C)OB([C@@H]2C[C@H]2N)OC1(C)C.Cl` (racemic) was 5.19%.
The value for `COCCn1c(S)nc2cc(Cl)ccc2c1=O` was 0.512%.
For the compound `C=CC(=O)N1CC2(CCOCC2)c2ccccc21`, the Inhibition % worked out at 7.61%.
To `C=CC(=O)N(C)Cc1cccnc1` belongs 11.8%; to `CCn1ncc(C(=O)CCl)n1`, 87.8%.
As for `C=CC(=O)N(C)C1CCN(c2ccccc2Cl)C1=O` (stereo not drawn), the Inhibition % turned out to be 6.51%.
The value for `O=C(c1cccs1)N1CCC(S(=O)(=O)F)CC1` was 10.8%.
As for `N#Cc1[nH]cnc1C(F)(F)F`, the Inhibition % turned out to be 22.2%.
As for `COc1cc(B2OC(C)(C)C(C)(C)O2)cnc1C#N`, the Inhibition % came to 7.43%.
On to `CCOCCCn1c(S)nc2cc(Cl)ccc2c1=O`, for which the Inhibition % is 9.16%.
To `O=C(CCl)Nc1ccc2c(c1)OC1(CCCCC1)O2` belongs 93.3%; to `O=C(CCl)N(CC1CCCO1)C1CCS(=O)(=O)C1` (stereo not drawn), 8.57%; to `Cc1nn(C)c(Cl)c1C=CC(=O)N1CCC(N)CC1.Cl`, 11.2%.
To `CCn1ccc(=O)nc1S` belongs 1.97%.
In the case of `Cc1cc(C(=O)Cn2cnc(C#N)n2)c(C)n1C(C)C`, the Inhibition % amounted to 11.7%.
Regarding `Cc1ccc(NC(=O)CN2CCSC2=O)cc1Cl`, the Inhibition % worked out at 7.62%.
The value for `O=C(Nc1cccc(Cl)c1)N1CCC(C2OCCO2)CC1` was 7.17%.
Consider `N#CC(C(=O)CCl)c1nc2ccccc2[nH]1` (stereo not drawn), for which the Inhibition % amounted to 29.3%.
On to `O=S(=O)(C=Cc1ccc(Cl)cc1)NCC1CCCO1` (stereo not drawn), for which the Inhibition % amounted to 6.48%.
`CCOc1ccc(Cl)cc1S(=O)(=O)n1nc(C)cc1C`: the Inhibition % was determined as 0.108%.
In the case of `O=S1(=O)CCC(NS(=O)(=O)C=Cc2ccccc2)C1` (stereo not drawn), the Inhibition % came to 6.88%.
For `CC1(C)OB(c2ccc(CO)c(N)c2)OC1(C)C`, the Inhibition % is 12.8%.
Regarding `CC1Cc2ccccc2N1C(=O)CCl` (stereo not drawn), the Inhibition % was found to be 8.22%.
As to `O=C(CCl)NCC1CCN(c2ccccc2)C1` (stereo not drawn), the Inhibition % is reported as 25.2%.
Consider `Cc1csc(Cl)c1NC(=O)CCl`, for which the Inhibition % is reported as 4.72%.
Regarding `C=CC(=O)N1CCCn2nnnc21`, the Inhibition % worked out at 3.91%.
As for `O=C(CCl)NCC1(c2ccccc2)CC1`, the Inhibition % turned out to be 11.9%.
With `Cn1cc(C(C)(C)C(=O)Nc2cccc(S(=O)(=O)F)c2)cn1`, the Inhibition % was 88.2%.
Turning to `N#Cc1cc(NCC2CCCO2)ccn1` (stereo not drawn), the Inhibition % is -2.52%.
Turning to `Cc1cccc(F)c1B1OC(C)(C)C(C)(C)O1`, the Inhibition % came out at 4.86%.
The value for `COC(=O)C(F)(F)c1ccc(B2OC(C)(C)C(C)(C)O2)cc1` was 7.59%; that for `O=C(C=Cc1cnc2ccccc2n1)N1CCCCC1` was 9.55%.
Regarding `C=CC(=O)N1CC2(CCC2)c2ccccc21`, the Inhibition % worked out at 4.37%.
Turning to `COc1cc([N+](=O)[O-])ccc1NC(=O)CCl`, the Inhibition % was 13.4%.
Turning to `C=CC(=O)NC[C@@H]1OCCN(C)[C@H]1c1ccccc1`, the Inhibition % was 12%.
As to `N#Cc1ccc2c(n1)CCCN2`, the Inhibition % was determined as 0.203%.
In the case of `C=CC(=O)NCCc1cnc(C2CC2)nc1`, the Inhibition % is listed as 7.94%.
For `C=CC(=O)N1CCN(c2cccc(OC(F)F)c2)CC1`, the Inhibition % is on record as 6.79%.
Consider `Cc1nc(C=CC(=O)N2CCCC2)cs1`, for which the Inhibition % came to 7.3%.
For `C=CC(=O)N1CCC(c2nc(C(F)(F)F)cs2)CC1`, the Inhibition % worked out at 4.08%.
In the case of `CC1(C)OB(c2cccc3c2OCC3)OC1(C)C`, the Inhibition % came out at 11.2%.
To `C=CC(=O)N1CC(NC(=O)C(F)(F)F)CCC1C(F)(F)F` (stereo not drawn) belongs 1.69%.
The value for `Cc1c(B2OC(C)(C)C(C)(C)O2)n(C(=O)OC(C)(C)C)c2ccccc12` was 8.09%.
Take `CCCSc1nsc(NC(=O)CCl)n1`: the Inhibition % is reported as 27.3%.
Take `C=CC(=O)NCCc1nnnn1-c1ccccc1`: the Inhibition % turned out to be 8.6%.
The value for `O=[N+]([O-])c1ccc(C(F)(F)F)c(S(=O)(=O)F)c1` was 102%.
The value for `CC(=O)N1CCN(C(=O)CN(C#N)c2ccccc2)CC1` was 6.74%.
As for `C=CC(=O)N1CC(Cc2ccccc2)C1`, the Inhibition % turned out to be 4.5%.
As to `O=C1CCC(=O)N1Cc1cccc(SC(F)(F)F)c1`, the Inhibition % is recorded as 2.67%.
With `CC1(C)OB(c2ccc(OC(F)F)c(F)c2)OC1(C)C`, the Inhibition % was 2.66%.
Consider `CN(CC1CC1)C(=O)CCl`, for which the Inhibition % is 50.3%.
For the compound `COc1cccc(Cn2ccnc2C#N)c1`, the Inhibition % was determined as 4.18%.
In the case of `N#Cc1nc(NCCCN2CCCCC2=O)ccc1Cl`, the Inhibition % was 5.54%.
For `CC(C)NC(=O)C(C#N)=Cc1ccc(C(=O)O)n1C`, the Inhibition % stood at 20.9%.
For the compound `N#Cc1cnc(OCC(F)F)cn1`, the Inhibition % was 6.83%.
On to `CS(=O)(=O)C(C#N)=Cc1ccc(F)cc1`, for which the Inhibition % is reported as 6.88%.
`C=CC(=O)NCC1C(C)(C)C1(C)C`: the Inhibition % amounted to 4.08%.
